In paper PMC9723945:
Like-named read-outs stand apart in the source and are kept apart here. Results are given in words; binding and its absence hold for the method and conditions named. In cells and extracts the contact can be indirect. Some results given as binding are weak or reduced against the parent protein; the word gives no strength. Sequences can lack the tags named with a protein.

T1: HA-tagged B1ΔNT (927-1584) (human) (UniProt O14514)
T1 sequence: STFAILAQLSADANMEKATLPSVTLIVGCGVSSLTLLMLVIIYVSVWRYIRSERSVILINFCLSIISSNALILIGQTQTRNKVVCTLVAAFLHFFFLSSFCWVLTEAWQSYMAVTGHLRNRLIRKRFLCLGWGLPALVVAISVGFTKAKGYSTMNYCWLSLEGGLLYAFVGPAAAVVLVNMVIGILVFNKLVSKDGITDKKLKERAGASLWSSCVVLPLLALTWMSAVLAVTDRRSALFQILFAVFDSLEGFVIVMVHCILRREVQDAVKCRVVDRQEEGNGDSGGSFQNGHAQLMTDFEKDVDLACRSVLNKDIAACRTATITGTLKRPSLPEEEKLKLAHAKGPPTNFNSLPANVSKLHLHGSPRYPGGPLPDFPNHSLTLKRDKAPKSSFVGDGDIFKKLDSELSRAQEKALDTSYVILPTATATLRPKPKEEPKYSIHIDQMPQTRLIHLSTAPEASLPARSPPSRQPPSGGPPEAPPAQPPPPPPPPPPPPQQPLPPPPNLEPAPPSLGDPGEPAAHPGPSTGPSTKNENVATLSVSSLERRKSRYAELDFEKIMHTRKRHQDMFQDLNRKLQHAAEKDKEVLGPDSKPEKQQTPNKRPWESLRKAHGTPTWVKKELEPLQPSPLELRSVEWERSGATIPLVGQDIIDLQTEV

T2: His/myc-tagged B1ΔCT (1-1200) (human) (UniProt O14514)
T2 sequence: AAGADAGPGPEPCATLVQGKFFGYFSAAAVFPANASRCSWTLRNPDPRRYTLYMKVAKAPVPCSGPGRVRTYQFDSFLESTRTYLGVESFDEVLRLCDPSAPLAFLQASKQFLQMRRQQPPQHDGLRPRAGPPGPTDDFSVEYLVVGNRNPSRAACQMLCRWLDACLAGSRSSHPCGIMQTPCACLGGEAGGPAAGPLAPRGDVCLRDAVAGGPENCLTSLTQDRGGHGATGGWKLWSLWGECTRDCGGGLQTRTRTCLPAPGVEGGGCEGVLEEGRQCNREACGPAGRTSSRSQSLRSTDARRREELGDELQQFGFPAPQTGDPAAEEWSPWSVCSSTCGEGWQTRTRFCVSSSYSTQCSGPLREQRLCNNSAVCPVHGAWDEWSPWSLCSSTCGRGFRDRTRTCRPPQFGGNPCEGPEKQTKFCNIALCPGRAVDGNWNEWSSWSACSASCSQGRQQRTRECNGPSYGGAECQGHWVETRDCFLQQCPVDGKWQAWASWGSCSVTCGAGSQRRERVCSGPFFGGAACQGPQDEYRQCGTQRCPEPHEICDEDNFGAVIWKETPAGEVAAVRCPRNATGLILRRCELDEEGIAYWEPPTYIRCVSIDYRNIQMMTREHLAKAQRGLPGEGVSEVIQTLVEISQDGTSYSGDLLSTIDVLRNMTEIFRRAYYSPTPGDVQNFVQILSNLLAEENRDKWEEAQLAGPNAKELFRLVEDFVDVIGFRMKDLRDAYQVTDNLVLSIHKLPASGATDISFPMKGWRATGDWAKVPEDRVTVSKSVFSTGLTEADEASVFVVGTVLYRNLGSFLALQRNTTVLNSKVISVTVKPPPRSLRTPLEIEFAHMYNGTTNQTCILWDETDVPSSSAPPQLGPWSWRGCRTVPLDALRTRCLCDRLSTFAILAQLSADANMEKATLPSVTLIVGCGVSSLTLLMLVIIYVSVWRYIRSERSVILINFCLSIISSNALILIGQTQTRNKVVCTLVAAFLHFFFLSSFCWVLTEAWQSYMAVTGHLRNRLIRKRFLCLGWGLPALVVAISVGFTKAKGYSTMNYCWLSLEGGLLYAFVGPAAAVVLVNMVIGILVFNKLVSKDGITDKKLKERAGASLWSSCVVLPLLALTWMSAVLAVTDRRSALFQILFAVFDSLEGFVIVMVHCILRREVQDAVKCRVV

T3: myc-tagged B1-NTF (1-927) (human) (UniProt O14514)
T3 sequence: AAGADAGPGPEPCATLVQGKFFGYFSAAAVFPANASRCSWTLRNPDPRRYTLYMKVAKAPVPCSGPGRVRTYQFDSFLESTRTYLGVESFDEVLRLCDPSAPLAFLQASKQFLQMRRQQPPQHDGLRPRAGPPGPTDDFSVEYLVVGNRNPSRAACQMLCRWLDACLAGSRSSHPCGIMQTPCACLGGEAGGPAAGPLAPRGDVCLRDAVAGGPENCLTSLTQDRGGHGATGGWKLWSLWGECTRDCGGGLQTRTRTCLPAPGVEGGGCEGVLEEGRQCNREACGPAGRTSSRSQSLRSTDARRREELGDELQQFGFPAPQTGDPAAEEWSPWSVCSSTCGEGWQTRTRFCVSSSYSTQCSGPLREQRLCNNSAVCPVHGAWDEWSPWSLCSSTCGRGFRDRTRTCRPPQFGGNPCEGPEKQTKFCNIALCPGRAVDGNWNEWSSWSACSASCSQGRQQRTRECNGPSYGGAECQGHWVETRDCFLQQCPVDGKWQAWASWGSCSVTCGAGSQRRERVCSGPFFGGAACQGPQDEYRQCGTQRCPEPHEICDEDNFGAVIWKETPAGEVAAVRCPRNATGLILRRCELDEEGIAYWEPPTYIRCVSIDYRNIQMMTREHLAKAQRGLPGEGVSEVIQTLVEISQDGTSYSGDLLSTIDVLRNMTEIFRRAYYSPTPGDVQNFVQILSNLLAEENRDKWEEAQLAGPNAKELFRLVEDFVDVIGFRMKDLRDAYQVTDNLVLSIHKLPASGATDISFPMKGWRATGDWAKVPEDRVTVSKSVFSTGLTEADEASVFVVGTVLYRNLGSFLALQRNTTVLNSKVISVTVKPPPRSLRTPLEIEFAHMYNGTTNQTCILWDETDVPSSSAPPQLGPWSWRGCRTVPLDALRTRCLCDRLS


Legend:
Experiment in all cases: co-IP; HEK293T cells co-transfected, 48 h; solubilised in 150 mM NaCl, 25 mM Hepes pH 7.2, 1 mM EDTA, 1% Triton X-100 overnight at 4 °C; anti-HA or anti-Myc agarose beads overnight at 4 °C, washed 3x; Western blot; B1FL with B1ΔCT tested without and with coexpressed ATP11A
[1] = target: T1, HA-tagged B1ΔNT (927-1584) (human)
[2] = target: T2, His/myc-tagged B1ΔCT (1-1200) (human)
[3] = target: T3, myc-tagged B1-NTF (1-927) (human)
[4] = target: T2, His/myc-tagged B1ΔCT (1-1200) (human); remark: listed apart in the source
[5] = target: T3, myc-tagged B1-NTF (1-927) (human); remark: listed apart in the source

binding [1]	binding [2]	binding [3]	binding [4]	binding [5]	Molecule
binds	binds	no binding	–	–	Brain-specific angiogenesis inhibitor 1, full-length (B1FL) (from UniProt O14514 31-1584) (receptor)
–	–	–	binds	binds	HA-ATP11A (phosphatidylserine flippase ATP11A) (enzyme, UniProt P98196 1-1134) MDCSLVRTLVHRYCAGEENWVDSRTIYVGHREPPPGAEAYIPQRYPDNRIVSSKYTFWNFIPKNLFEQFRRVANFYFLIIFLVQLIIDTPTSPVTSGLPLFFVITVTAIKQGYEDWLRHKADNAMNQCPVHFIQHGKLVRKQSRKLRVGDIVMVKEDETFPCDLIFLSSNRGDGTCHVTTASLDGESSHKTHYAVQDTKGFHTEEDIGGLHATIECEQPQPDLYKFVGRINVYSDLNDPVVRPLGSENLLLRGATLKNTEKIFGVAIYTGMETKMALNYQSKSQKRSAVEKSMNAFLIVYLCILISKALINTVLKYMWQSEPFRDEPWYNQKTESERQRNLFLKAFTDFLAFMVLFNYIIPVSMYVTVEMQKFLGSYFITWDEDMFDEETGEGPLVNTSDLNEELGQVEYIFTDKTGTLTENNMEFKECCIEGHVYVPHVICNGQVLPESSGIDMIDSSPSVNGREREELFFRALCLCHTVQVKDDDSVDGPRKSPDGGKSCVYISSSPDEVALVEGVQRLGFTYLRLKDNYMEILNRENHIERFELLEILSFDSVRRRMSVIVKSATGEIYLFCKGADSSIFPRVIEGKVDQIRARVERNAVEGLRTLCVAYKRLIQEEYEGICKLLQAAKVALQDREKKLAEAYEQIEKDLTLLGATAVEDRLQEKAADTIEALQKAGIKVWVLTGDKMETAAATCYACKLFRRNTQLLELTTKRIEEQSLHDVLFELSKTVLRHSGSLTRDNLSGLSADMQDYGLIIDGAALSLIMKPREDGSSGNYRELFLEICRSCSAVLCCRMAPLQKAQIVKLIKFSKEHPITLAIGDGANDVSMILEAHVGIGVIGKEGRQAARNSDYAIPKFKHLKKMLLVHGHFYYIRISELVQYFFYKNVCFIFPQFLYQFFCGFSQQTLYDTAYLTLYNISFTSLPILLYSLMEQHVGIDVLKRDPTLYRDVAKNALLRWRVFIYWTLLGLFDALVFFFGAYFVFENTTVTSNGQIFGNWTFGTLVFTVMVFTVTLKLALDTHYWTWINHFVIWGSLLFYVVFSLLWGGVIWPFLNYQRMYYVFIQMLSSGPAWLAIVLLVTISLLPDVLKKVLCRQLWPTATERVQTKSQCLSVEQSTIFMLSQTSSSLSF
